Laboratory results as given in PubChem BioAssay AID624296 (National Center for Advancing Translational Sciences (NCATS), 2012).
Among all 350,000 compounds or so, about 9,900 (2.8%) were called active. Inconclusive results, whose numbers are uncertain, are shown with a selection of clear calls. The call rests on the fitted dose curve; in most records, active means well fitted activation curve with a large enough effect; inconclusive means small, poorly fitted or top-dose-only effect; inactive means no such curve, though single readings can be large or run the other way. No potency is given beside an inconclusive call; the fits are too rough.

test: A quantitative high throughput screen for small molecules that induce DNA re-replication in MCF 10a normal breast cells.; further: nearly all actives have a fitted effect of over 50% in size; settings: MCF 10A DNA re-replication, Hoechst nuclear intensity, 48 h; series mostly up to 46.1 µM
Potency means the concentration at half of the fitted maximal effect; tags describe the fitted curve by direction and shape.

SMILES | Potency
O=C(Cn1c(=O)oc2cccnc21)Nc1ccc(C(F)(F)F)cc1 | inconclusive [activator, single point]
CN(C)c1ccc(/C=C2\SC(=S)N(Nc3ncc(C(F)(F)F)cc3Cl)C2=O)cc1 | inactive
O=C(CSC1=NCCN1)C1COc2ccccc2O1 (configuration not stated) | inconclusive [activator, single point]
COc1ccccc1C(=O)NNC(=S)NC(=O)c1sc2ccccc2c1Cl | inconclusive [activator, partial curve]
CSCCC(NS(=O)(=O)c1ccc(C)cc1)C(=O)NCC(C)(C)N1CCOCC1 (configuration not stated) | inactive
Cc1[nH]n(-c2ccccc2)c(=O)c1N=Nc1ccc(C(=O)O)cc1 | inactive
CCOC(=O)N1CCN(c2c(NCCN(C)Cc3ccccc3)c(=O)c2=O)CC1 | inactive
CCOC(=O)c1sc(NC(=S)NC(=O)C2CC2)cc1C | inconclusive [activator, partial curve, poor fit]
C1=C(CCNc2ncnc3c2[nH]c2ccccc23)CCCC1 | inconclusive [activator, partial curve, poor fit]
CC1CC(C)CN(C(=O)COc2ccc([N+](=O)[O-])cc2Cl)C1 (configuration not stated) | inconclusive [activator, single point]
N/C(=N/O)c1nc(N2CCCC2)nc(N(c2ccccc2)c2ccccc2)n1 | inconclusive [activator, partial curve, poor fit]
O=c1[nH]c(C2CCN(S(=O)(=O)c3cccc(C(F)(F)F)c3)CC2)nc2c1nnn2Cc1cccc(F)c1 | inconclusive [activator, single point]
CCN(CC)CCC=C(c1cccs1)c1cccs1 | inconclusive [activator, partial curve, poor fit]
NC(=NCCc1c[nH]c2ccccc12)NS(=O)(=O)c1ccc2ccccc2c1 | inconclusive [activator, single point]
CC(=O)N/N=C\c1cccc(OC/C=C/c2ccccc2)c1 | inactive
Cc1ccc(C)c(NC(=O)CSc2nc(C)cc(C)c2C#N)c1 | inactive
CC1(C)Cc2c(sc3ncnc(NNC(=S)NCc4ccccc4)c23)CO1 | active: 3.26 µM
COc1ccc2cc(S(=O)(=O)c3ccccc3)c(=O)oc2c1 | inconclusive [activator, partial curve, poor fit]
CCN1CCCC1CNCC(O)COc1ccc(C(C)(C)C)cc1C (configuration not stated) | active: 9.2 µM
CCCNC(=O)c1c(N)n(-c2cc(OC)cc(OC)c2)c2nc3ccccc3nc12 | active: 16.4 µM
COc1ccc(C(CNC(=O)COc2ccccc2C)N2CCCCC2)cc1 (configuration not stated) | inactive
CCOc1cc(Br)c(COc2ccc(C)nc2[N+](=O)[O-])cc1OCC | inconclusive [activator, partial curve, poor fit]
Cc1ccc(NC2CCCCC2NS(=O)(=O)c2ccccc2)c(C)c1 (configuration not stated) | inactive
CC(C)c1ccccc1OCCNC(=S)NC(=O)c1cccnc1 | inconclusive [activator, partial curve]

SMILES | Potency
Cc1cc(NS(=O)(=O)c2ccc(Nc3nc(-c4ccc(O)cc4)cs3)cc2)no1 | inactive
Cc1cccc(NC(=O)CSc2cccc[n+]2[O-])c1C | inactive
C=CCn1c(N)c(C(=O)Nc2cccc(C)c2)c2nc3ccccc3nc21 | inconclusive [activator, full curve, poor fit]
CCN(C(=O)Cc1ccc(Br)cc1)C1CCCCC1 | inactive
CCN(C(=O)CSc1nnnn1-c1ccc(Cl)cc1)C1CCS(=O)(=O)C1 (configuration not stated) | inactive
CCCCNc1c(-c2ccc(OC)c(Sc3ccc(OC)cc3)c2)nc2ccc(Cl)cn12 | inconclusive [activator, single point]
O=C(CCCCCn1c(=S)[nH]c2cc3c(cc2c1=O)OCO3)N1CCN(c2ccccc2)CC1 | inconclusive [activator, full curve]
CCOC(=O)c1c(C)[nH]c(C)c1S(=O)(=O)N(C)CC(=O)Nc1ccccc1 | inactive
CCN(CC)CCOC(=O)c1ccc(N/C=C(/C#N)c2nc(-c3ccc(OC)c(OC)c3)cs2)cc1 | active: 18.4 µM
O=C(CCNC(=O)c1ccc([N+](=O)[O-])cc1)Nc1ccccc1N1CCCCC1 | inactive
Cc1ccc(CC(=O)NC2CCSC2=O)cc1 (configuration not stated) | inactive
O=C(Nc1ccccc1)/C(=C\c1ccccc1)NC(=O)c1ccco1 | inconclusive [activator, single point]
COc1ccc(C(=O)Nc2nc(CC(=O)NCCc3cccc(OC)c3)cs2)cc1 | inactive
CC(C)CN(CC(C)C)CC(O)CN(c1ccccc1)S(=O)(=O)c1ccccc1[N+](=O)[O-] (configuration not stated) | inconclusive [activator, partial curve, poor fit]
O=C(Nc1ccc(-c2nc3ccccc3[nH]2)cc1)c1ccco1 | inactive
Cc1ccccc1NS(=O)(=O)c1ccc2c3c(cccc13)C(=O)N2C | inconclusive [activator, single point]
COC(=O)c1ccc(NC(=S)N2CCN(Cc3ccccc3OC)CC2)cc1 | inactive
O=C1C2CCCN2C(=S)N1c1cc(Cl)ccc1Cl (configuration not stated) | inconclusive [activator, full curve, poor fit]
CC(CNC(=O)c1ccc(-c2ccccc2)cc1)CN(C)C (configuration not stated) | inactive
CCOc1ccc(C=NNC(=O)c2cccc3ccccc23)cc1OCC | inactive
CC1=C(C(=O)OCc2ccccc2)C(c2ccc(N3CCOCC3)cc2)NC(=O)N1 (configuration not stated) | inconclusive [activator, single point]
CC(C)=CCC[C@](C)(O)C1CC[C@]2(C)C1C(O)CC1[C@@]3(C)CCC(O)C(C)(C)C3C(O[C@@H]3OC(CO)C(O)C(O)C3O[C@@H]3OC(C)C(O)C(O)C3O)C[C@]12C (some centres not stated) | inconclusive [activator, partial curve, poor fit]
CCOC(=O)c1c(C)[nH]c(C(=O)N/N=C/c2ccc(Br)cc2)c1C | inconclusive [activator, full curve, poor fit]
